Reference: the supplement of paper PMC12217912
This is one part of the list. Sequences were assembled here from the parent chain. Inactive controls read about 0.05.

B1: TEV protease; numbered along this chain (parent)
chain: MGESLFKGPRDYNPISSSICHLTNESDGHTTSLYGIGFGPFIITNKHLFRRNNGTLVVQSLHGVFKVKDTTTLQQHLVDGRDMIIIRMPKDFPPFPQKLKFREPQREERICLVTTNFQTKSMSSMVSDTSCTFPSGDGIFWKHWIQTKDGQCGSPLVSTRDGFIVGIHSASNFTNTNNYFTSVPKNFMELLTNQEAQQWVSGWRLNADSVLWGGHKVFMVKPEEPFQPVKEATQL

Variants of: B1
Assay: raw area under fraction-flipped curve 0-4 h after induction (AUC4h, not background-subtracted), DNA-recorder readout of cleavage of the substrate (dimensionless); higher = more cleavage of the substrate by the protease variant
Settings: temperature: 34 °C; time window: 0-4 h after rhamnose induction
Procedure: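 In vivo DNA recorder in E. coli TOP10(DE3) ΔrhaA at 34 °C. Each TEVp single-site mutant (parent TEVp 0) is paired with a single-site variant of the 7-mer TEVs (canonical ENLYFQ|S). The substrate sits between flexible linkers in a Bxb1-sfGFP-TEVs-SsrA fusion, so cleavage stabilises Bxb1 and speeds flipping of a recombination array, read by NGS. The value is the raw area under the fraction-flipped curve over 0-4 h after rhamnose induction (AUC4h), with ≥20 reads per time point. It is not background-subtracted; inactive controls average about 0.047.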
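Also: Bxb1 expression induced with 0.2% (w/v) L-rhamnose at OD600 near 0.5, cultures sampled hourly, flipped fraction per protease–substrate barcode pair counted by paired-end Illumina sequencing.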

Variant | area with substrate EALYFQS | area with substrate ECLYFQS | area with substrate EDLYFQS | area with substrate EELYFQS | area with substrate EGLYFQS | area with substrate EHLYFQS | area with substrate EILYFQS | area with substrate EKLYFQS | area with substrate ELLYFQS | area with substrate EMLYFQS | area with substrate EPLYFQS | area with substrate EQLYFQS | area with substrate ERLYFQS | area with substrate ESLYFQS | area with substrate EVLYFQS | area with substrate EWLYFQS | area with substrate ETLYFQS | area with substrate EYLYFQS | area with substrate EFLYFQS
D69R | 0.0869 | 0.0924 | 0.115 | 0.0817 | 0.0748 | 0.0763 | 0.0814 | 0.0892 | 0.0704 | 0.0937 | 0.112 | 0.0889 | 0.0701 | 0.0807 | 0.147 | 0.0899 |  |  | 
I110M | 0.101 | 0.0664 | 0.104 |  |  | 0.0802 | 0.076 | 0.0672 |  |  | 0.0435 | 0.0827 | 0.0682 |  | 0.0774 | 0.0701 |  |  | 
I110Q | 0.0504 | 0.0523 | 0.0504 | 0.0684 |  |  | 0.0635 | 0.0596 |  | 0.0709 |  | 0.0604 |  | 0.0592 | 0.0564 | 0.041 | 0.0541 | 0.0227 | 
E103W | 0.081 | 0.085 | 0.0908 | 0.0851 | 0.0754 | 0.0543 | 0.0731 | 0.0835 | 0.0963 | 0.0907 |  | 0.0922 | 0.0785 | 0.0762 | 0.0602 | 0.074 |  |  | 0.0582
R106W | 0.127 | 0.0996 | 0.116 | 0.136 | 0.075 | 0.114 | 0.0857 | 0.0851 | 0.0857 | 0.114 | 0.13 | 0.107 | 0.103 | 0.0894 | 0.0936 | 0.0922 | 0.0983 | 0.0897 | 
R106H | 0.11 | 0.0938 | 0.11 | 0.119 | 0.0772 | 0.0965 | 0.0862 | 0.143 | 0.0914 | 0.0849 |  | 0.117 | 0.108 | 0.0776 | 0.0904 | 0.11 | 0.106 | 0.099 | 
H76S | 0.112 | 0.0965 | 0.106 | 0.121 | 0.0592 |  | 0.124 | 0.101 | 0.0984 | 0.126 |  | 0.116 | 0.112 | 0.108 |  | 0.0799 | 0.118 | 0.0903 | 0.0853
H76I | 0.1 | 0.0691 |  |  | 0.0605 |  |  | 0.034 |  |  | 0.0986 | 0.0899 | 0.0669 | 0.0894 | 0.0905 | 0.103 |  |  | 0.0775
S121D | 0.111 | 0.0904 | 0.101 | 0.11 | 0.0999 |  | 0.102 | 0.0989 | 0.0886 |  |  | 0.148 | 0.0978 | 0.099 | 0.0806 |  |  | 0.0765 | 0.0637
S121V | 0.132 | 0.124 | 0.108 | 0.108 |  |  | 0.111 | 0.1 | 0.0942 | 0.0975 | 0.0958 |  | 0.118 |  | 0.103 | 0.0895 | 0.118 | 0.0988 | 0.125
I86K | 0.0572 |  | 0.0413 |  |  | 0.0316 | 0.0266 |  | 0.056 | 0.0345 |  | 0.0389 |  | 0.0294 | 0.0368 |  |  | 0.0533 | 
M125K | 0.127 | 0.0989 |  | 0.129 | 0.0883 | 0.0553 | 0.0947 | 0.129 | 0.106 |  | 0.121 | 0.0895 |  | 0.0864 |  | 0.0944 |  | 0.124 | 
E107S | 0.117 | 0.106 | 0.0984 | 0.0876 |  | 0.104 | 0.0854 | 0.0994 | 0.108 |  | 0.105 | 0.116 | 0.147 | 0.119 | 0.0923 | 0.084 | 0.122 | 0.107 | 
E107K | 0.112 | 0.0941 | 0.141 | 0.118 | 0.0856 | 0.102 | 0.0977 | 0.106 | 0.0772 | 0.11 | 0.106 | 0.151 | 0.0951 | 0.113 | 0.115 |  | 0.114 |  | 0.124
Q118S | 0.114 |  | 0.117 | 0.155 |  |  |  | 0.0761 | 0.0611 | 0.129 |  | 0.125 |  |  | 0.0783 | 0.0797 | 0.0769 |  | 
N116E | 0.0805 | 0.11 | 0.123 | 0.114 | 0.106 |  | 0.0789 | 0.0911 | 0.104 | 0.11 | 0.097 | 0.132 | 0.108 | 0.0983 | 0.1 | 0.0863 |  | 0.0925 | 
K100S | 0.11 | 0.117 | 0.152 |  |  | 0.12 | 0.0745 | 0.113 |  | 0.108 | 0.115 | 0.129 |  | 0.0973 | 0.0932 |  | 0.106 |  | 
T70A | 0.104 | 0.073 |  | 0.103 | 0.0409 |  |  | 0.0786 |  |  |  |  | 0.0546 | 0.0749 | 0.0745 |  | 0.0752 | 0.0859 | 
T70D | 0.0708 | 0.0588 | 0.0953 | 0.0828 | 0.0465 |  | 0.0801 | 0.102 |  |  |  |  | 0.0944 | 0.0686 | 0.0308 | 0.0776 | 0.072 |  | 0.084
T70W | 0.0651 | 0.0645 | 0.0766 | 0.0607 | 0.0627 | 0.0675 | 0.062 | 0.0794 | 0.0652 | 0.0572 | 0.0678 | 0.0677 | 0.0562 | 0.0695 | 0.0884 | 0.0669 | 0.0778 |  | 0.0544
D82F | 0.077 | 0.0493 | 0.0469 | 0.0581 | 0.059 | 0.0437 | 0.0573 | 0.0665 | 0.0593 |  | 0.0586 | 0.0486 | 0.0459 | 0.0486 |  | 0.0497 |  |  | 
D82Q | 0.0593 | 0.0617 | 0.0404 | 0.0616 |  |  | 0.053 |  | 0.0803 | 0.0381 | 0.062 | 0.0713 | 0.0641 | 0.0701 | 0.0636 | 0.0507 |  |  | 
S127A | 0.131 | 0.131 | 0.144 | 0.11 | 0.0894 | 0.111 | 0.105 | 0.1 | 0.148 | 0.121 | 0.143 | 0.118 | 0.121 | 0.102 | 0.132 |  |  | 0.127 | 0.113
S127Y | 0.117 |  | 0.144 | 0.139 |  |  | 0.104 |  |  | 0.127 | 0.218 | 0.116 | 0.0963 | 0.103 |  |  | 0.146 | 0.11 | 
